Here are results for five molecules from US20240360208A1.

The chains behind the UniProt entries cited, without tags or fusion partners. Where a name states a change or a piece, a line headed by the entry shows the natural chain unless it says otherwise.
UniProt P13500: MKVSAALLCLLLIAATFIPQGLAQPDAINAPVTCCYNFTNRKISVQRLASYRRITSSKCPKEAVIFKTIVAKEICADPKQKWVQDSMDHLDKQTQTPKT

These are yes or no findings as the source states them, for the method shown. Some entries that bind do so weakly or less than the wild type.

One assay has as its target huCCL13 wild type. Briefly: SPR (Biacore T200), 25 °C, ACES pH 7.4; antibody captured on anti-human IgG (Fc), chemokine injected at 5 nM and 20 nM.
For assay [1], the target named is human CCL2 (MCP1) - wild type (wt) (human) (UniProt P13500). Briefly: SPR, C1 chip, anti-human Fc capture, 25 C, pH 7.4, Langmuir 1:1. For orientation: SPR reads the build-up and loss of mass on a sensor chip optically.
Assay [2] shares this target. In words: SEC-MALLS of 1:1 antibody:CCL2 mixes; + low quantity of multi-/oligomers.

B1: 1G9 (antibody, IgG1, V domains shown)
VH: QSLEESGGDLVKPGASLTLTCKASGIDFSLYSYMCWVRQAPGKGLEWIACVDAGASGSTYYASWAKGRFTISKTSSTTVTLQMTSLTAADTATYFCARGILYYTWPYPAGAIDAFDSWGPGTLVTVSS
VL: AYDMTQTPASVSEPVGGTVTIKCQASESISNYLSWYQQKPGQPPKLLIYKASTLASGVPSRFKGSGSGTEYTVTISGVQSDDAATYYCQQSYSSSNVFNTFGGGTEVVVK
Turning to B1, the binding result with huCCL13 wild type is “no binding (tested: 20 nM)”.

B2: Humanized 11K2 (=11K2) (antibody, IgG1, V domains shown)
VH: QVQLVQSGAEVKKPGSSVKVSCKASGLTISDTYMHWVRQAPGQGLEWMGRIDPANGNTKFDPKFQGRVTITADTSTSTAYMELSSLRSEDTAVYYCARGVFGFFDYWGQGTTVTVSS
VL: DIQMTQSPSSLSASVGDRVTITCKATEDIYNRLAWYQQKPGKAPKLLISGATSLETGVPSRFSGSGSGTDYTLTISSLQPEDFATYYCQQFWSAPYTFGGGTKVEIK
For the molecule B2, the binding entry with huCCL13 wild type is given as “no binding (tested: 20 nM)”.

B3: 1A4//2F6-PGLALA (bispecific antibody, V domains shown)
VH 1: QSLEESGGDLVKPGASLTLTCTASELDFYWICWVRQAPGKGLEWIACIGAGSSGSTYYASWAKGRFTVSKTSSTTVTLQMTSLTAADTATYFCARTGTEFTYYSLWGPGTLVTVSS
VL 1: ALVMTQTPSSVSAAVGGTVTINCQASQSVYNNNMAWYQQKPGQPPKLLIYTASSLASGVPSHFRGSGSGTQFTLTISDLESDDAATYYCAGYKSYSNDEYGFGGGTEVVVK
VH 2: QSLEESGGGLVQPEGSLTLTCTASGFSFNNNYYMCWVRQAPGKGLEWIGCISTDDSNTHYASWAQGRFTISKASSTALTLQVAGLTVADMATYFCARDAHFTSYGYGFDLWGPGTLVTVSS
VL 2: DIVMTQTPASVSAAVGGTVSINCRASEDIENLVAWYQQKPGQPPKLLIYQASKLASGVPSRFKGSGSGAEFTLTIGDLESADAATYYCQGDYGSGWIMYSFGGGTDLVVK
Consider B3, for which the binding result in assay [1] is “binds”.

B4: 1A4//2F6-WT IgG1 (bispecific antibody, V domains shown)
VH 1: B3 VH 1
VL 1: B3 VL 1
VH 2: B3 VH 2
VL 2: B3 VL 2
With B4, the binding entry in assay [1] and in assay [2] was “binds” in each case.

B5: 1A5 (antibody, IgG1, V domains shown)
VH: QEQLVESGGDLVKPEGSLTLTCTASGFSFSTSYWMCWVRQAPGKGLELIACISSSIGVTYYASWAEGRFTISKTSSTTVTLQMTSLTVADTATYFCARTTDDNWNVGFNLWGPGTLVTVSS
VL: AYDMTQTPASVEVGVGGTVTIKCQASQSIGNRYLSWYQQKPGQPPKLLIYGTSTLASGVSSRFKGSGSGTQFTLTISGVESADSATYYCQQGATISYLDNAFGGGTEVVVK
In the case of B5, the binding entry with huCCL13 wild type was “no binding (tested: 20 nM)”.
